Data reported in article PMC11208920.
Positions count from the first letter of the chain named. Names may count otherwise. No constants are given. Whether binding was seen depends on the method and setting. For some assays here: In cells and extracts the contact can be indirect. Some binding calls cover weakened binding; strength is not graded here. For some assays here: Tags and fused reporters may be left off the sequences shown. Values belong to the binder of their own block, whether it stands above or below them.

How the values were obtained:
[1] = molecular target: T1, HA-tagged full-length human LARP6 (human) (UniProt Q9BRS8); test: co-IP; HEK293T cells transfected with tagged proteins; HA-tagged LARP6 forms immunoprecipitated from cleared lysate (0.5% NP-40 lysis buffer, 4 °C, protein A/G-agarose), Flag-tagged DNAAF6 analysed in the precipitate
T1 sequence: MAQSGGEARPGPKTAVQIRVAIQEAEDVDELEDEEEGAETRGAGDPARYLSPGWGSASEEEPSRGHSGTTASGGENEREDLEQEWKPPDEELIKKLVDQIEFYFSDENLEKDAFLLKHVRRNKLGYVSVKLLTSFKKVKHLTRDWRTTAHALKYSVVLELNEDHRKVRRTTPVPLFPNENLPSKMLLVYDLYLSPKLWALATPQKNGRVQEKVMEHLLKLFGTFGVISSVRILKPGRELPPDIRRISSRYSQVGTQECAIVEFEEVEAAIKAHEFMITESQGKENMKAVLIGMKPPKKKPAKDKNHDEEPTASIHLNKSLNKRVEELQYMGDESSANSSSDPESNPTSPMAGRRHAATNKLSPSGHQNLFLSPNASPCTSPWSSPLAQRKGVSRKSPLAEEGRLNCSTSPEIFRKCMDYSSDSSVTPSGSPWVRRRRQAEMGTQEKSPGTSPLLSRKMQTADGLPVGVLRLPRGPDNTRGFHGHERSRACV

[2] = molecular target: T2, human LARP6 fragment, aa 73-303 (yeast two-hybrid bait) (human) (UniProt Q9BRS8); test: two-hybrid; yeast two-hybrid screen; hLARP6 aa 73-303 in pGBKT7 as bait against a Clontech Mouse Embryonic Fibroblast Matchmaker cDNA library; His auxotrophy and LacZ activation
T2 sequence: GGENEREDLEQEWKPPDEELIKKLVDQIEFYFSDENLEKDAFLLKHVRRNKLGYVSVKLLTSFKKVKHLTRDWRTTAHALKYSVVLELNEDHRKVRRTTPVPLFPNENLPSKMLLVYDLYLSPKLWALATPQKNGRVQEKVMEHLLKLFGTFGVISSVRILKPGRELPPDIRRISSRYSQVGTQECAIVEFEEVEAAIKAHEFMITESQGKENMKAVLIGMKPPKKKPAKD

[3] = molecular target: T3, Flag-tagged human DNAAF6 (expressed in HEK293T cells) (human) (UniProt Q9NQM4); test: co-IP; HEK293T cell extract; Flag-tagged hDNAAF6 immunoprecipitated, HA-tagged FL hLARP6 analysed in the precipitate; extract untreated or treated with RNase before coimmunoprecipitation
T3 sequence: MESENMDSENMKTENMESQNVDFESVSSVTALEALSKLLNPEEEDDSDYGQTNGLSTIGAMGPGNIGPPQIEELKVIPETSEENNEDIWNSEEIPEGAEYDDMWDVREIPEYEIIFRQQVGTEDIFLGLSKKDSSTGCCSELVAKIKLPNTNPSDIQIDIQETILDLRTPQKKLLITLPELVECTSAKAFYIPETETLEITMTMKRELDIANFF

B2: Flag-tagged human DNAAF6 (expressed in HEK293T cells) (protein, UniProt Q9NQM4 1-214)
chain: T3 sequence
binding [1]: binds

B3: Flag-tagged human DNAAF6 D133Y (protein, UniProt Q9NQM4 1-214)
chain: T3 sequence with D133Y
binding [1]: binds

B4: DNAAF6, full size clone from a Mouse Embryonic Fibroblast cDNA library (yeast two-hybrid prey) (protein, UniProt Q3KNI6 1-218)
chain: MESENAEAENVVTGNLEAKSKEGKNMQFVTLSSAWSLQALSSLLNPEEEDGFDFEQGQCSFTIGAMGPGNIGPPKAKESKAIPEPRSDESENIWNPEEVPEGAEHDDIWDVREIPDYEIVFQQTVGTEDVYLGLTRKDPSTACCQELVVKIKLPNTNPSEIQIDIQEMLLDLRTPRKKLLVNFPQPVERNSARASYIWEAETLEVRMTVQRDLDFNIS
binding [2]: binds

The next lines start with the values.

binding [1]: no binding
B1: Flag-tagged human DNAAF6 Q171∗ (expressed in HEK293T cells) (domain or fragment, UniProt Q9NQM4 1-170)
chain: MESENMDSENMKTENMESQNVDFESVSSVTALEALSKLLNPEEEDDSDYGQTNGLSTIGAMGPGNIGPPQIEELKVIPETSEENNEDIWNSEEIPEGAEYDDMWDVREIPEYEIIFRQQVGTEDIFLGLSKKDSSTGCCSELVAKIKLPNTNPSDIQIDIQETILDLRTP

binding [3]: binds
B5: HA-tagged full-length human LARP6 (protein, UniProt Q9BRS8 1-491)
chain: T1 sequence
